# Results as given in the supplement of paper PMC8728848.
# Some of the results follow.
# Key:
# Experiment in all cases: glycan array binding signal (z-score within array); higher = stronger binding
# Details in all cases: glycan notation: IUPAC condensed, linker removed
# Fuc(a1-2)Gal = biological target: Fuc(a1-2)Gal
# Method in brief: (§1)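 Glycan array binding is given as a within-array Z-score, which can be read as non-binding when negative. The arrays, 3228 of them, came from the Consortium for Functional Glycomics database and were retained only where the protein sequence was available. Z-scores were averaged across arrays of the same protein sequence at different concentrations or buffers and across linkers.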
# Fuc(a1-2)Gal(b1-3)GalNAc = biological target: Fuc(a1-2)Gal(b1-3)GalNAc
# Method in brief: as §1
# [1] = biological target: Fuc(a1-2)Gal(b1-3)GalNAc(a1-3)[Fuc(a1-2)]Gal(b1-4)Glc
# Method in brief: as §1
# [2] = biological target: Fuc(a1-2)Gal(b1-3)GalNAc(a1-3)[Fuc(a1-2)]Gal(b1-4)GlcNAc
# Method in brief: as §1
# [3] = biological target: Fuc(a1-2)Gal(b1-3)GalNAc(b1-3)Gal
# Method in brief: as §1
# [4] = biological target: Fuc(a1-2)Gal(b1-3)GalNAc(b1-3)Gal(a1-4)Gal(b1-4)Glc
# Method in brief: as §1
# [5] = biological target: Fuc(a1-2)Gal(b1-3)GalNAc(b1-4)[Neu5Ac(a2-3)]Gal(b1-4)Glc
# Method in brief: as §1
# Fuc(a1-2)Gal(b1-3)GlcNAc = biological target: Fuc(a1-2)Gal(b1-3)GlcNAc
# Method in brief: as §1
# [6] = biological target: Fuc(a1-2)Gal(b1-3)GlcNAc(b1-2)Man(a1-3)[Fuc(a1-2)Gal(b1-3)GlcNAc(b1-2)Man(a1-6)]Man(b1-4)GlcNAc(b1-4)GlcNAc
# Method in brief: as §1
# [7] = biological target: Fuc(a1-2)Gal(b1-3)GlcNAc(b1-3)Gal(b1-4)Glc
# Method in brief: as §1
# [8] = biological target: Fuc(a1-2)Gal(b1-3)GlcNAc(b1-3)[Fuc(a1-3)[Gal(b1-4)]GlcNAc(b1-6)]Gal(b1-4)Glc
# Method in brief: as §1
# [9] = biological target: Fuc(a1-2)Gal(b1-3)[Fuc(a1-4)]GlcNAc
# Method in brief: as §1
# [10] = biological target: Fuc(a1-2)Gal(b1-3)[Fuc(a1-4)]GlcNAc(b1-2)Man(a1-3)[Fuc(a1-2)Gal(b1-3)[Fuc(a1-4)]GlcNAc(b1-2)Man(a1-6)]Man(b1-4)GlcNAc(b1-4)GlcNAc
# Method in brief: as §1
# [11] = biological target: Fuc(a1-2)Gal(b1-3)[Fuc(a1-4)]GlcNAc(b1-3)[Fuc(a1-3)[Gal(b1-4)]GlcNAc(b1-6)]Gal(b1-4)Glc
# Method in brief: as §1
# [12] = biological target: Fuc(a1-2)Gal(b1-3)[Fuc(a1-4)]GlcNAc(b1-3)[Gal(b1-4)GlcNAc(b1-6)]Gal(b1-4)Glc
# Method in brief: as §1
# Fuc(a1-2)Gal(b1-4)Glc = biological target: Fuc(a1-2)Gal(b1-4)Glc
# Method in brief: as §1
# Fuc(a1-2)Gal(b1-4)Glc6S = biological target: Fuc(a1-2)Gal(b1-4)Glc6S
# Method in brief: as §1
# Fuc(a1-2)Gal(b1-4)GlcNAc = biological target: Fuc(a1-2)Gal(b1-4)GlcNAc
# Method in brief: as §1
# [13] = biological target: Fuc(a1-2)Gal(b1-4)GlcNAc(b1-2)Man(a1-3)[Fuc(a1-2)Gal(b1-4)GlcNAc(b1-2)Man(a1-6)]Man(b1-4)GlcNAc(b1-4)GlcNAc
# Method in brief: as §1
# [14] = biological target: Fuc(a1-2)Gal(b1-4)GlcNAc(b1-3)Gal(b1-4)GlcNAc
# Method in brief: as §1
# [15] = biological target: Fuc(a1-2)Gal(b1-4)GlcNAc(b1-3)Gal(b1-4)GlcNAc(b1-3)Gal(b1-4)GlcNAc
# Method in brief: as §1
# [16] = biological target: Fuc(a1-2)Gal(b1-4)GlcNAc(b1-3)GalNAc
# Method in brief: as §1
# [17] = biological target: Fuc(a1-2)Gal(b1-4)GlcNAc6S
# Method in brief: as §1
# [18] = biological target: Fuc(a1-2)Gal(b1-4)[Fuc(a1-3)]GlcNAc
# Method in brief: as §1
# [19] = biological target: Fuc(a1-2)Gal(b1-4)[Fuc(a1-3)]GlcNAc(b1-2)Man(a1-3)[Fuc(a1-2)Gal(b1-4)[Fuc(a1-3)]GlcNAc(b1-2)Man(a1-6)]Man(b1-4)GlcNAc(b1-4)GlcNAc
# Method in brief: as §1
# [20] = biological target: Fuc(a1-2)Gal(b1-4)[Fuc(a1-3)]GlcNAc(b1-3)Gal(b1-4)[Fuc(a1-3)]GlcNAc
# Method in brief: as §1
# [21] = biological target: Fuc(a1-2)Gal(b1-4)[Fuc(a1-3)]GlcNAc(b1-3)Gal(b1-4)[Fuc(a1-3)]GlcNAc(b1-3)Gal(b1-4)[Fuc(a1-3)]GlcNAc
# Method in brief: as §1
# Fuc(a1-2)Gal6S(b1-4)Glc = biological target: Fuc(a1-2)Gal6S(b1-4)Glc
# Method in brief: as §1
# [22] = biological target: Fuc(a1-2)Gal6S(b1-4)Glc6S
# Method in brief: as §1
# [23] = biological target: Fuc(a1-2)Gal6S(b1-4)GlcNAc
# Method in brief: as §1
# Fuc(a1-2)[Gal(a1-3)]Gal = biological target: Fuc(a1-2)[Gal(a1-3)]Gal
# Method in brief: as §1
# [24] = biological target: Fuc(a1-2)[Gal(a1-3)]Gal(b1-3)GlcNAc
# Method in brief: as §1
# [25] = biological target: Fuc(a1-2)[Gal(a1-3)]Gal(b1-3)GlcNAc(b1-2)Man(a1-3)[Fuc(a1-2)[Gal(a1-3)]Gal(b1-3)GlcNAc(b1-2)Man(a1-6)]Man(b1-4)GlcNAc(b1-4)GlcNAc
# Method in brief: as §1
# [26] = biological target: Fuc(a1-2)[Gal(a1-3)]Gal(b1-4)Glc
# Method in brief: as §1
# [27] = biological target: Fuc(a1-2)[Gal(a1-3)]Gal(b1-4)GlcNAc
# Method in brief: as §1
# [28] = biological target: Fuc(a1-2)[Gal(a1-3)]Gal(b1-4)GlcNAc(b1-2)Man(a1-3)[Fuc(a1-2)[Gal(a1-3)]Gal(b1-4)GlcNAc(b1-2)Man(a1-6)]Man(b1-4)GlcNAc(b1-4)GlcNAc
# Method in brief: as §1
# [29] = biological target: Fuc(a1-2)[Gal(a1-3)]Gal(b1-4)[Fuc(a1-3)]GlcNAc
# Method in brief: as §1
# [30] = biological target: Fuc(a1-2)[Gal(a1-4)]Gal(b1-4)GlcNAc
# Method in brief: as §1
# [31] = biological target: Fuc(a1-2)[GalNAc(a1-3)]Gal
# Method in brief: as §1
# [32] = biological target: Fuc(a1-2)[GalNAc(a1-3)]Gal(b1-3)GalNAc(a1-3)[Fuc(a1-2)]Gal(b1-4)GlcNAc
# Method in brief: as §1
# [33] = biological target: Fuc(a1-2)[GalNAc(a1-3)]Gal(b1-3)GlcNAc
# Method in brief: as §1
# [34] = biological target: Fuc(a1-2)[GalNAc(a1-3)]Gal(b1-3)GlcNAc(b1-2)Man(a1-3)[Fuc(a1-2)[GalNAc(a1-3)]Gal(b1-3)GlcNAc(b1-2)Man(a1-6)]Man(b1-4)GlcNAc(b1-4)GlcNAc
# Method in brief: as §1
# [35] = biological target: Fuc(a1-2)[GalNAc(a1-3)]Gal(b1-4)Glc
# Method in brief: as §1
# [36] = biological target: Fuc(a1-2)[GalNAc(a1-3)]Gal(b1-4)GlcNAc
# Method in brief: as §1
# [37] = biological target: Fuc(a1-2)[GalNAc(a1-3)]Gal(b1-4)GlcNAc(b1-2)Man(a1-3)[Fuc(a1-2)[GalNAc(a1-3)]Gal(b1-4)GlcNAc(b1-2)Man(a1-6)]Man(b1-4)GlcNAc(b1-4)GlcNAc
# Method in brief: as §1
binder,measurement,setting,value
"Ecp6 (Cladosporium fulvum), B3VBK9 (protein) MQSMILFAAALMGAAVNGFVLPRTDDPDCETKATDCGSTSNIKYTVVKGDTLTSIAKKFKSGICNIVSVNKLANPNLIELGATLIIPENCSNPDNKSCVSTPAEPTETCVPGLPGSYTIVSGDTLTNISQDFNITLDSLIAANTQIENPDAIDVGQIITVPVCPSSQCEAVGTYNIVAGDLFVDLAATYHTTIGQIKALNNNVNPSKLKVGQQIILPQDCKNVTTAVA",glycan array binding signal (z-score),Fuc(a1-2)Gal,-0.081
same,glycan array binding signal (z-score),Fuc(a1-2)Gal(b1-3)GalNAc,-0.084
same,glycan array binding signal (z-score),[1],-0.099
same,glycan array binding signal (z-score),[2],-0.099
same,glycan array binding signal (z-score),[3],-0.046
same,glycan array binding signal (z-score),[4],-0.104
same,glycan array binding signal (z-score),[5],-0.082
same,glycan array binding signal (z-score),Fuc(a1-2)Gal(b1-3)GlcNAc,-0.087
same,glycan array binding signal (z-score),[6],-0.096
same,glycan array binding signal (z-score),[7],-0.104
same,glycan array binding signal (z-score),[8],-0.095
same,glycan array binding signal (z-score),[9],-0.071
same,glycan array binding signal (z-score),[10],-0.081
same,glycan array binding signal (z-score),[11],-0.096
same,glycan array binding signal (z-score),[12],-0.121
same,glycan array binding signal (z-score),Fuc(a1-2)Gal(b1-4)Glc,-0.09
same,glycan array binding signal (z-score),Fuc(a1-2)Gal(b1-4)Glc6S,-0.062
same,glycan array binding signal (z-score),Fuc(a1-2)Gal(b1-4)GlcNAc,-0.086
same,glycan array binding signal (z-score),[13],-0.1
same,glycan array binding signal (z-score),[14],-0.075
same,glycan array binding signal (z-score),[15],-0.082
same,glycan array binding signal (z-score),[16],-0.088
same,glycan array binding signal (z-score),[17],-0.087
same,glycan array binding signal (z-score),[18],-0.078
same,glycan array binding signal (z-score),[19],-0.085
same,glycan array binding signal (z-score),[20],-0.066
same,glycan array binding signal (z-score),[21],-0.055
same,glycan array binding signal (z-score),Fuc(a1-2)Gal6S(b1-4)Glc,-0.076
same,glycan array binding signal (z-score),[22],-0.086
same,glycan array binding signal (z-score),[23],-0.091
same,glycan array binding signal (z-score),Fuc(a1-2)[Gal(a1-3)]Gal,-0.086
same,glycan array binding signal (z-score),[24],-0.083
same,glycan array binding signal (z-score),[25],-0.095
same,glycan array binding signal (z-score),[26],-0.095
same,glycan array binding signal (z-score),[27],-0.078
same,glycan array binding signal (z-score),[28],-0.091
same,glycan array binding signal (z-score),[29],-0.021
same,glycan array binding signal (z-score),[30],-0.084
same,glycan array binding signal (z-score),[31],-0.088
same,glycan array binding signal (z-score),[32],-0.093
same,glycan array binding signal (z-score),[33],-0.086
same,glycan array binding signal (z-score),[34],-0.099
same,glycan array binding signal (z-score),[35],-0.095
same,glycan array binding signal (z-score),[36],-0.082
same,glycan array binding signal (z-score),[37],-0.09
